Measured values: patent EP0643964A2 (priority 1993, dated 1995)

System: acute viral A hepatitis
Conditions: a week later

CCN(CC)CC(=O)Nc1c(C)cccc1C [lidocaine]
Jaundice (4 patients, 5 ml 2% i.v. once a day 7 days): disappearance of jaundice in those 2 patients who presented it
Bilirubin level (serum): decreased, but not to normal levels
LDH, GOT, GPK, glucose and cholesterol values (serum): among those considered normal
